Measured values published in PubChem BioAssay (Tox21).
“And” between values parts separate entries of the source, which are not always exact repeats. Equal values may be shown once. This list was built around the results that the source calls inconclusive (neither active nor inactive); the mix of calls is not that of the screen. No potency is given beside an inconclusive call; the fits are too rough. A structure can be active in one record and inactive in another. The source made the active and inactive calls. Unless noted, calls come from the whole dose curve; as a rule, active = well fitted cell-killing curve with a large enough effect in the repeat runs; inconclusive = weak or mixed curves, or effect the other way; inactive = no such curve, though single readings can be large or run the other way.

Assays:
[1] = biological target: Androgen receptor (Homo sapiens) (UniProt P10275); assay: qHTS assay to identify small molecule antagonists of the androgen receptor (AR) signaling pathway (AID 743035; active = well fitted inhibition curve with a large enough effect in the signal ratio in the repeat runs, not every such curve was filed as active; inconclusive = weak or mixed curves, or effect the other way; inactive = no such curve, though single readings can be large or run the other way; the % refers to the signal ratio); details: HEK293 AR-UAS-bla, R1881-stimulated, beta-lactamase FRET, 16 h
Outline: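 Antagonism is scored as loss of R1881-driven beta-lactamase reporter expression in HEK293 cells carrying the reporter under a UAS element, after 16 h co-treatment at 37C and a 2 h room-temperature FRET substrate read.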

[2] = qHTS assay for identifying genotoxic compounds that show differential cytotoxicity against isogenic chicken DT40 cell lines with known DNA damage response pathways - wild type cell line (AID 743012); details: DT40 wild type chicken cells viability, CellTiter-Glo, 40 h; note: nearly all actives have a fitted effect of over 60% in size
Outline: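 Cells (DT40 wild type, 300/well) are treated with DMSO-dissolved compounds after a ~0.5 h pre-incubation and kept 40 h at 37 C/5% CO2. Viability is then measured by CellTiter-Glo luminescence following 30 min at room temperature.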

[3] = biological target: Glucocorticoid receptor (Homo sapiens) (UniProt P04150); assay: qHTS assay to identify small molecule antagonists of the glucocorticoid receptor (GR) signaling pathway (AID 720692; active = well fitted inhibition curve with a large enough effect in the signal ratio in the repeat runs, not every such curve was filed as active; inconclusive = weak or mixed curves, or effect the other way; inactive = no such curve, though single readings can be large or run the other way; the % refers to the signal ratio); details: GR-bla HeLa, beta-lactamase FRET ratio, dexamethasone-stimulated, 18 h; activity change, negative = inhibition: at 58.5 µM (top of the series) unless noted
Outline: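 Cells plated, rested 4 h at 37 C/5% CO2; compounds in DMSO pin-transferred; dexamethasone added to 5 nM final; 18 h at 37 C; B/G FRET substrate added, 2 h room temperature; fluorescence measured.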

[4] = qHTS assay for identifying genotoxic compounds that show differential cytotoxicity against isogenic chicken DT40 cell lines with known DNA damage response pathways - Rev3 mutant cell line (AID 743014); details: chicken DT40 Rev3-/- viability, CellTiter-Glo, 40 h; activity, negative = cytotoxicity: at 68.4 µM (top of the series) unless noted; note: nearly all actives have a fitted effect of over 55% in size
[5] = qHTS assay to identify small molecule antagonists of the glucocorticoid receptor (GR) signaling pathway - cell viability counter screen (AID 720693); details: GR-bla HeLa viability, CellTiter-Glo luminescence, 18 h, with 5 nM dexamethasone present; viability change, negative = cytotoxic: at 58.5 µM (top of the series) unless noted; note: nearly all actives have a fitted effect of over 55% in size
[6] = activity change, negative = inhibition: at 58.5 µM (top of the series) unless noted
[7] = activity change, negative = cytotoxicity: at 68.4 µM (top of the series) unless noted
% is set by controls: 0 for no effect and ±100 for the full control effect; potency is the fitted concentration of half-maximal effect; tags give direction and shape of the fitted curve or compound fluorescence and quenching.

Chain of UniProt P10275 (P10275 whole entry, looked up): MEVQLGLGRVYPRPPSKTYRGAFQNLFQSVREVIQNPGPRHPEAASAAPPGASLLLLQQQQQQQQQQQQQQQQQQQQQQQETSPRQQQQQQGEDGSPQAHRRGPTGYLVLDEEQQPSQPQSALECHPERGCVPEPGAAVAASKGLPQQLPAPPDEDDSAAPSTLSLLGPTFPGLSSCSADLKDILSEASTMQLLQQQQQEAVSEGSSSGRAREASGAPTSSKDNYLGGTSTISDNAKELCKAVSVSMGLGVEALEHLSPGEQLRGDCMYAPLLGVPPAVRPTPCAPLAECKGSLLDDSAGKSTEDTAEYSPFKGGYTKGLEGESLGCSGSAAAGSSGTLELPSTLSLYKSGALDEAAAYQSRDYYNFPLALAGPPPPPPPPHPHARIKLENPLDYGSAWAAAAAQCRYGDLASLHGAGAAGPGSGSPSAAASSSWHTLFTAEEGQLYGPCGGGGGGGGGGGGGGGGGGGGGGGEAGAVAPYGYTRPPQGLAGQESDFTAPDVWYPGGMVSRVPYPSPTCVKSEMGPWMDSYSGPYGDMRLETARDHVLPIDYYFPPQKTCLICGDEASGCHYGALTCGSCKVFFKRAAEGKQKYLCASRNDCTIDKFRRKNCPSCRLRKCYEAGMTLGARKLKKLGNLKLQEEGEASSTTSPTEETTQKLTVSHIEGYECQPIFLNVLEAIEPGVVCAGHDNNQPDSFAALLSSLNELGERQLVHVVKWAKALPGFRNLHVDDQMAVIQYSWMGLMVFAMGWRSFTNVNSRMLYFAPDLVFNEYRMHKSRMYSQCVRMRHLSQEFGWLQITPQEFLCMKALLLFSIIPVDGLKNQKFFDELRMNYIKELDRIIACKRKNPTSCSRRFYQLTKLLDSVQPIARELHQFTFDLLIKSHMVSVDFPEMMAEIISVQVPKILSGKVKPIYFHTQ
Chain of UniProt P04150 (P04150 whole entry, looked up): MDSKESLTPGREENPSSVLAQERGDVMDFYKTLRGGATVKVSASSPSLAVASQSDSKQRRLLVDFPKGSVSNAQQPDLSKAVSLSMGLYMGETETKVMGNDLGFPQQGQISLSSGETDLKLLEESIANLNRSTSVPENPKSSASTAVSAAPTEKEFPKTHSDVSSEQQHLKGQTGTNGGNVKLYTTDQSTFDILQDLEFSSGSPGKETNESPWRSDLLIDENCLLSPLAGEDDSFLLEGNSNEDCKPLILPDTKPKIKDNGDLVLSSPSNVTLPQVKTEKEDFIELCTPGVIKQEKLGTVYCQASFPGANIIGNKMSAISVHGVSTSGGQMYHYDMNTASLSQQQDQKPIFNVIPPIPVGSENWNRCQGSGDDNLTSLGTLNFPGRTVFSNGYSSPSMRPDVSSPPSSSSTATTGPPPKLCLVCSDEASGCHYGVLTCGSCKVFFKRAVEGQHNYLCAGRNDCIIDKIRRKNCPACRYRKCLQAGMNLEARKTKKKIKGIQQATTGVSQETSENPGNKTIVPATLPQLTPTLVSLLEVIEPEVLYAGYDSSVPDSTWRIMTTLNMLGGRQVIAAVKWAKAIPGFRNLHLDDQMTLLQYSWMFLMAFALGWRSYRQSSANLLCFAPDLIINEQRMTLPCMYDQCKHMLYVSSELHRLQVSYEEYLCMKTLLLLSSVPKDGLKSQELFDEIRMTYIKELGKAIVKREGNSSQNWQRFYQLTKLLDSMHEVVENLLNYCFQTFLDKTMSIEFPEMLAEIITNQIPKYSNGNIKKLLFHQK

Structure (SMILES): c1ccc2c(c1)ccc1ccccc12
- activity change, negative = inhibition [1, 6]: inconclusive: 0.352%
- activity change, negative = inhibition ([1]; at 58.5 µM (top of the series)): inactive: -8.25%

Structure (SMILES): CC(CCO)CC(C)(C)C (stereo unspecified)
- activity change, negative = cytotoxicity ([2]; at 68.4 µM (top of the series)): inactive: 8.24%

Structure (SMILES): CC(Cl)COP(=O)(OCC(C)Cl)OCC(C)Cl (stereo unspecified)
- Potency [3]: inactive
- Potency [2, 7]: inconclusive [cytotoxic, single point]

Structure (SMILES): C=CC[N+](C)(C)CC=C
- activity change, negative = inhibition [3]: inconclusive: 20.7%
- Potency [2, 7]: inactive

Structure (SMILES): CCOC(=O)NNc1nncc2ccccc12
- activity change, negative = inhibition [3]: inconclusive: -1.97% and inconclusive: 20.3%
- Potency [2, 7]: inactive
- Potency [4]: inactive

Structure (SMILES): CCOC(=O)Cn1c(=O)sc2cccc(Cl)c21
- Potency [3]: inconclusive [activator, single point]
- Potency [2, 7]: inconclusive [cytotoxic, single point]
- Potency [4]: inconclusive [cytotoxic, partial curve, poor fit]

Structure (SMILES): CCCCOC(=O)c1ccccc1C(=O)OCC(CC)CCCC (stereo unspecified)
- activity change, negative = inhibition [3]: inconclusive: 1.44%
- Potency [2, 7]: inactive
- Potency [4]: inconclusive [cytotoxic, partial curve, poor fit]

Structure (SMILES): CC(=O)/C=C/C1C(C)=CCC(C)C1(C)C (stereo unspecified)
- Potency [3]: inactive
- Potency [2, 7]: inconclusive [cytotoxic, single point]
- Potency [4]: inconclusive [cytotoxic, partial curve]

Structure (SMILES): CC(=O)c1sc(C)nc1C
- Potency [3]: inactive
- Potency [2, 7]: inactive

Structure (SMILES): S=C([S-])NCCNC(=S)[S-].[Mn+2]
- Potency [3]: inconclusive [fluorescent]
- Potency [2, 7]: active: 61.1 µM
- Potency [4]: inconclusive [cytotoxic, partial curve, poor fit]

Structure (SMILES): CO/N=C(/C(=O)N[C@@H]1C(=O)N2C(C(=O)O)=C(Cn3nnc(C)n3)CS[C@H]12)c1csc(N)n1
- Potency [3]: inactive
- Potency [2, 7]: inconclusive [rising, partial curve, poor fit]

Structure (SMILES): Nc1cccc([N+](=O)[O-])c1
- activity change, negative = inhibition [3]: inconclusive: 9.6%
- Potency [5]: inconclusive [rising, single point]
- Potency [1, 6]: inactive

Structure (SMILES): CCc1cc(C2=C(C(=O)O)N(c3ccccc3C(F)(F)F)S(=O)(=O)c3ccccc32)cc2c1OCO2
- activity change, negative = inhibition [3]: inconclusive: -35.4%
- Potency [2, 7]: inconclusive [cytotoxic, single point]
- Potency [4]: inconclusive [cytotoxic, single point]

Structure (SMILES): COc1ccc2c(c1)c1c3n2CCN(C)C3=NCC1
- activity change, negative = inhibition [3]: inconclusive: 5.58%
- Potency [2, 7]: inconclusive [cytotoxic, partial curve]
- Potency [4]: inconclusive [cytotoxic, full curve]

Structure (SMILES): CCCCOCCOCCOCCCC
- Potency [3]: inactive
- Potency [2, 7]: inactive

Structure (SMILES): CCCC(=O)c1ccccc1
- Potency [3]: inactive
- Potency [2, 7]: inconclusive [cytotoxic, single point]
- Potency [4]: inconclusive [cytotoxic, full curve]

Structure (SMILES): CC(C)OP(=O)(CP(=O)(OC(C)C)OC(C)C)OC(C)C
- activity change, negative = inhibition [3]: inconclusive: 12.3%
- activity change, negative = cytotoxicity [2, 7]: inconclusive: 25.1%

Structure (SMILES): O=C(O)c1nc(Cl)c(Cl)c(Cl)c1Cl
- Potency [3]: inconclusive [inhibitor, partial curve]
- Potency [2, 7]: inconclusive [cytotoxic, single point]

Structure (SMILES): OC(C#CCN1CCCC1)(c1ccccc1)c1ccccc1
- activity change, negative = inhibition [3]: inconclusive: 0.423%
- Potency [2, 7]: active: 23.7 µM
- Potency [4]: inconclusive [cytotoxic, partial curve]

Structure (SMILES): Cn1ccc2cc3c(cc21)CCN3C(=O)Nc1cccnc1
- activity change, negative = inhibition [3]: inconclusive: 45.8%
- Potency [2, 7]: inconclusive [cytotoxic, partial curve]

Structure (SMILES): CCCCCCCCCCCCCCCCC(=O)O
- Potency [3]: inactive
- Potency [5]: inactive
- Potency [1, 6]: inconclusive [falling, partial curve, poor fit]

Structure (SMILES): CCC(C)N (stereo unspecified)
- activity change, negative = inhibition [3]: inconclusive: 18.5%
- Potency [2, 7]: inactive

Structure (SMILES): ON(Cc1ccccc1)Cc1ccccc1
- activity change, negative = inhibition [3]: inconclusive: 20.4%
- Potency [5]: inconclusive [rising, partial curve, poor fit]
- Potency [1, 6]: inactive

Structure (SMILES): NC(=O)Nc1ccccc1
- activity change, negative = inhibition [3]: inconclusive: 0.255%
- Potency [2, 7]: inactive

Structure (SMILES): O=c1[nH]c(=O)n([C@H]2C[C@H](O)[C@@H](CO)O2)cc1C(F)(F)F
- activity change, negative = inhibition [3]: inconclusive: 36%
- Potency [2, 7]: active: 0.944 µM
- Potency [4]: active: 0.133 µM

Structure (SMILES): O=C(Nc1ccc([N+](=O)[O-])cc1)Nc1ccc([N+](=O)[O-])cc1
- Potency [3]: inconclusive [activator, partial curve]
- Potency [2, 7]: active: 10.6 µM
- Potency [4]: active: 10.6 µM

Structure (SMILES): C/C=C/C(=O)CC
- Potency [3]: inactive
- Potency [2, 7]: inactive
- Potency [4]: inactive

Structure (SMILES): CC(C)(C)NCCO
- Potency [3]: inactive
- Potency [2, 7]: inactive
- Potency [4]: inconclusive [cytotoxic, single point]
